# Laboratory results published in paper PMC4336329 (PLoS ONE, 2015).
# The campaign covered roughly 310,000 compounds. About 14,000 (4.5%) showed an effect of 50% or more. The effect is printed as a negative number. The list shows a part of the results. Where a SMILES comes first, the peptide text is derived from it. The star is where a group is joined. Boc = CC(C)(C)OC(=O)*; OtBu = CC(C)(C)O*; tBu = CC(C)(C)*
# Biological target: human ether-à-go-go-related gene (hERG) potassium channel (human, UniProt Q12809)
# Sequence (Q12809 whole entry, looked up): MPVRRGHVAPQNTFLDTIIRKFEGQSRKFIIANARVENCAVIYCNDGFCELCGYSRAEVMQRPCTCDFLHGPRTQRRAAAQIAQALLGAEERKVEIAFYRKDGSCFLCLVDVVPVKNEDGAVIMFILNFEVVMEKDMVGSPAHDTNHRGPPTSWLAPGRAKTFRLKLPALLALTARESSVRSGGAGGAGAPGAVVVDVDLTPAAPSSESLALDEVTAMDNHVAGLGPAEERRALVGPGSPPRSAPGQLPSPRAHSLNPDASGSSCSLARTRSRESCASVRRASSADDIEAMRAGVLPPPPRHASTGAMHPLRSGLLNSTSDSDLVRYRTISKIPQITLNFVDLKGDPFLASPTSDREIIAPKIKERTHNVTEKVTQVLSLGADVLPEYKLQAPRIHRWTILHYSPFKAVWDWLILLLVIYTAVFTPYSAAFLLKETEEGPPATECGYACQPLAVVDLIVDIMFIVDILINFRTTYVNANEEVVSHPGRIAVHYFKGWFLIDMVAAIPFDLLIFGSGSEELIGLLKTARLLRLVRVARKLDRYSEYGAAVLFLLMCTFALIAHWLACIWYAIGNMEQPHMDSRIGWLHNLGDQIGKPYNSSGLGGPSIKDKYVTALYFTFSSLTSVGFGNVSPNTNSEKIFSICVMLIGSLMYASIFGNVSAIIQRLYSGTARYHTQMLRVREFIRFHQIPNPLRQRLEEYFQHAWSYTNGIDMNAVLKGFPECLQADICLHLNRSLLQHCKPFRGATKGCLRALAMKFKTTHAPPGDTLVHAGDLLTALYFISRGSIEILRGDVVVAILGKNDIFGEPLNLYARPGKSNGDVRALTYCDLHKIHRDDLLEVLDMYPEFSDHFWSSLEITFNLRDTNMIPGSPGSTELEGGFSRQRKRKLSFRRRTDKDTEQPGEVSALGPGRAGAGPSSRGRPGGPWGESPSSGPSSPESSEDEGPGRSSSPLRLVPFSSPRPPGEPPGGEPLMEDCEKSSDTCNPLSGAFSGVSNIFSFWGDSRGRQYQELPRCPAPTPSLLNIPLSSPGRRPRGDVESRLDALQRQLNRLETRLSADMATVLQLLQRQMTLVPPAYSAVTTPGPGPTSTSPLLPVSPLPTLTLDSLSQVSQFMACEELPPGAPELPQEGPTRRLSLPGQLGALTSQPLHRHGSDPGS
# Experiment: primary screen, population patch clamp on CHO cells stably expressing hERG
# 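Also: peak tail current of the secondary pulse compared with the same well before compound.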
row,SMILES,"hERG current change (%, negative = inhibition) at 10uM"
1,O=C(O)C1CCC(CNCc2ccncc2)CC1 (stereo not drawn),18.8%
2,CCOC(=O)C1=C(C)NC(=O)NC1/C=C/c1ccccc1 (stereo not drawn),-2.72%
3,COc1ccc(COc2ccsc2C(=O)Nc2ccc(Cl)cc2)cc1,7.17%
4,N#Cc1ccccc1COC(=O)c1cccnc1N,12.6%
5,CCn1c(CC(=O)Nc2ccc(F)cc2)nnc1SCC(=O)N1CCOCC1,11.1%
6,C=CCc1ccc(OCCOc2cccc(/C=N/n3cnnc3)c2)c(OC)c1,-26.2%
7,O=S(=O)(NN=C1CCCCC1)c1ccccc1,16%
8,CC1(C)CC(=O)C(N=Nc2ccc(OC(F)F)cc2)=C(O)C1,-57.6%
9,COc1ccc2[nH]c(=O)c(CNc3ccccc3OC)cc2c1,-7.66%
10,CC(C)(C)OCC(NC(=O)C(CC(N)=O)NC(=O)OC(C)(C)C)C(=O)OC(C)(C)C (stereo not drawn) (Boc-Asn-Ser(tBu)-OtBu; configuration not given here),2.53%
11,CCCCC(=O)Nc1ccc(C(=O)Nc2nc(CC(=O)OCC)cs2)cc1,-18.2%
12,COc1ccc2sc(-c3ccc(N(C)C)cc3)c(-c3cnc(OC)nc3)c2c1,17.5%
13,CC(=O)OC1c2ccccc2C(=O)N1Cc1ccccc1Cl (stereo not drawn),-7.25%
14,COc1ccc2c(c1)C(=NN)c1cc(OC)ccc1-2,11.5%
15,COc1ccc(NC(=O)C2=C(C)NC(=O)NC2c2cccs2)c(OC)c1 (stereo not drawn),17.2%
16,O=c1[nH]c2c(s1)C=Nc1ccccc1N2,13.2%
17,Cn1cc([N+](=O)[O-])c(C(=O)Nc2ccc(-c3nc4ccccc4[nH]3)cc2)n1,12.2%
18,CCC(C)N(C(=O)COC(=O)C1C(C(=O)OC)=C(C)NC(C)=C1C(=O)OC)C1CCS(=O)(=O)C1 (stereo not drawn),4.61%
19,CCCOc1ccc(C(=O)OCC(=O)c2c(N)n(C)c(=O)n(C)c2=O)cc1OC,15.8%
20,Cc1c(/C=N/Nc2nc3ccccc3[nH]2)c2ccccc2n1C,-6.23%
21,CSCCC(C(=O)OC1CCOC1=O)N1C(=O)c2ccccc2C1=O (stereo not drawn),7.22%
22,CN(CC(=O)Nc1c(Cl)cccc1Cl)C(=O)c1n[nH]c2ccccc12,-6.33%

row,SMILES,"hERG current change (%, negative = inhibition) at 10uM"
1,O=S(=O)(Cc1ccccc1)Nc1ccccc1,16%
2,O=C(Nc1cccc(Cl)c1)Nc1ccccc1C(=O)NCc1ccco1,8.62%
3,COC1=C/C(=C/c2c(N)n3cc(C)sc3nc2=O)C=CC1=O,-0.0296%
4,O=C(NCC1CCN(S(=O)(=O)c2ccccc2)CC1)Nc1ccc(F)cc1,-1.58%
5,O=C(COC(=O)c1ccccc1NCCO)NCC1CCCCC1,-8.14%
6,O=C(CCNC(=O)c1ccco1)Nc1ccc(OC(F)F)cc1,-23.8%
7,CCOc1cc(/C=C/c2nc3ccccc3c(=O)[nH]2)ccc1O,13.4%
8,CCC(=O)Oc1ccc2c(c1)O/C(=C\c1ccco1)C2=O,16.7%
9,Cc1ccc(S(=O)(=O)N2CCCCC2)cc1NC(=O)COC(=O)Cc1cccc(C(F)(F)F)c1,-9.57%
10,CCC(=O)Nc1cc(C(=O)O)ccc1S(=O)(=O)c1ccc(C)cc1,4.39%
11,CCc1cc(-c2n[nH]c(=S)n2-c2ccccc2C)cs1,-9.12%
12,Cc1cc(C)cc(OCC(O)CN2CCC(CN3C(=O)c4cccc5cccc(c45)C3=O)CC2)c1.Cl (stereo not drawn),-70%
13,CN(CC(=O)O)S(=O)(=O)c1ccc2oc3ccccc3c2c1,10.5%
14,COC(=O)N1CCN(C(=O)Cc2ccc(Cl)c(Cl)c2)C(CN2CCCC2)C1.O=C(O)/C=C/C(=O)O (stereo not drawn),-29.5%
15,COc1ccc2[nH]c(=O)c(CN(Cc3cccnc3)C(=S)NCC3CCCO3)cc2c1 (stereo not drawn),-11.9%
16,CCOC(=O)C1CCCN(CCc2ccccc2)C1 (stereo not drawn),1%
17,Cc1ccccc1Nc1nc(-c2sc(NC(=O)c3ccccc3)nc2C)cs1,25.7%
18,COc1ncnc2c1oc1nc(C(C)C)c3c(c12)CC(C)(C)OC3,9.43%
19,CNc1nc(-c2cccs2)cc(C(F)(F)F)c1C#N,3.45%
20,O=C(NCc1cccnc1)c1ccc(Cn2cc(C(F)(F)F)ccc2=O)cc1,15.3%
21,CCCC(=O)Nc1cc(C(=O)N2CCC3(CC2)OCCO3)ccc1S(=O)(=O)c1ccc(C)cc1,-14%
22,COC(=O)C1=NN[C@H](C(=O)OC)[C@H]1c1ccccc1,14.2%

row,SMILES,"hERG current change (%, negative = inhibition) at 10uM"
1,Cc1oc(-c2ccc(Cl)cc2)nc1CS(=O)CC(=O)N1CCC2(CC1)OCCO2 (stereo not drawn),-11.4%
2,CCN(CC)CCN1C(=O)C(O)=C(C(C)=O)C1c1ccc(OC)c(OC)c1 (stereo not drawn),2.82%
3,O=C(NCCN1C(=O)S/C(=C\c2ccc(Cl)c(Cl)c2)C1=O)c1cnccn1,1.98%
4,CCCC12CN3CC(C)(CN(C1)C31C(=O)Nc3ccc(C)cc31)C2=O (stereo not drawn),-1.83%
5,CNC(=S)N1CCN(S(=O)(=O)c2ccc3ccccc3c2)CC1,-15.4%
6,CCOc1cccc(N(C(=O)C2COc3ccccc3O2)C(C(=O)NC2CCCCC2)c2ccc(O)cc2)c1 (stereo not drawn),17.6%
7,COc1cccc(C2CC(c3cccs3)Nc3ncnn32)c1 (stereo not drawn),-9.49%
8,Cc1cc(-c2ccccc2)nc(SCc2ccc(C(=O)O)cc2)n1,23.8%
9,N#Cc1cc([N+](=O)[O-])ccc1Oc1cccc(/C=N/NC(=O)c2ccc(Cl)cc2)c1,-2.51%
10,CN1CCN(S(=O)(=O)c2cc([N+](=O)[O-])ccc2Cl)CC1,5.56%
11,Cc1ccc(N=Cc2cc(C)n(C3CCCC3)c2C)cc1,7.09%
12,Cc1cnc(NC(=O)CSc2ncc(-c3ccccc3)n2Cc2ccco2)s1,0.816%
13,COc1ccc(-c2nnc(SCc3c(C)noc3C)n2N)cc1OC,-3.18%
14,CC(O)c1nc2ccc(C(=O)O)cc2[nH]1.Cl (stereo not drawn),3.68%
15,O=C(O)C1C2C=CC3(CN(Cc4ccncc4)C(=O)C13)O2 (stereo not drawn),18%
16,CCOC(=O)c1ccccc1NC(=O)CN(c1cccc(OC)c1)S(C)(=O)=O,-10.4%
17,O=C(NCCOc1ccccc1)C1Nc2ccc(C(F)(F)F)cc2C2c3ccccc3CC12 (stereo not drawn),7.19%
18,CC(C)(C)NC(=O)c1ccc2c(c1)C1C3CCC(C3)C1C(c1ccccc1)N2 (stereo not drawn),5.59%
19,O=C(CNC(=O)c1ccc2ccccc2c1)Nc1ncccc1O,-7.67%
20,Cc1cc(OC(C)C(=O)N/N=C/CC(C)c2ccccc2)ccc1Cl (stereo not drawn),16.1%
21,O=C(COc1ccccc1)Nc1ccncc1Cl,6.33%
22,CCc1noc(C)c1C(=O)Nc1nc2c(F)cc(F)cc2s1,4.53%

row,SMILES,"hERG current change (%, negative = inhibition) at 10uM"
1,Cc1ccc(NC(=O)C2Oc3ccccc3OC2C)cc1 (stereo not drawn),8.68%
2,O=[N+]([O-])c1ccc(Cl)c(S(=O)(=O)Nc2cccc(-c3ccc(N4CCCC4)nn3)c2)c1,-19.4%
3,O=C(c1ccc([N+](=O)[O-])s1)N1CCc2ccccc21,20.8%
4,Cc1ccccc1NCC(=O)N/N=C/c1c(C)c(C(=O)c2ccc(Cl)cc2)n2ccccc12,-4.11%
5,Cc1cc(C(=O)CSc2nc3ccccc3c(=O)[nH]2)c(C)n1C,-1.99%
6,Cn1c(-c2sc3cc(C(F)(F)F)cnc3c2-c2ccccc2)n[nH]c1=S,20.1%
7,O=C1Nc2cc(C(=O)NCC3CCCO3)ccc2S/C1=C/c1ccccc1F (stereo not drawn),-4.84%
8,CN(C)c1nc(N(C)C)nc(N2CC(CCl)OC2=N)n1 (stereo not drawn),-28.4%
9,CN(C)CCN=Cc1c(O)n(CCC2=CCCCC2)c(=O)[nH]c1=O,-24.2%
10,COc1ccc(N=N/C(=C\O)C(=O)c2cccs2)cc1,24.5%
11,CC(=O)c1ccc(NC(=O)CSC(=S)N2CCCC2)cc1,-2.57%
12,COc1ccccc1C1CC(c2ccco2)=NN1c1ccccc1 (stereo not drawn),-0.421%
13,CC(=O)Nc1ccc(C2=CC(=O)CC(C)(C)C2)cc1,10.4%
14,CC1(OC(=O)CCc2ccccc2)C(=O)C=C2C=C(c3ccsc3)OC=C2C1=O (stereo not drawn),2.72%
15,Cc1ccccc1CS(=O)(=O)Cc1ccc(C(=O)NCc2cccnc2)o1,11.5%
16,Cc1cccc(N(Cc2ccccc2)C(=O)c2ccc(F)c(S(=O)(=O)N3CCOCC3)c2)c1,-50.5%
17,O=C(N[C@@H]1CCC(=O)N(CC[C@H](Sc2ccc(Br)cc2)c2ccccc2)CC1)OCc1ccccc1,0.417%
18,FC(F)Oc1ccc(NC(=S)NCc2cccnc2)cc1,-2.69%
19,CCSc1nc2ccccc2n1S(=O)(=O)c1ccccc1,8.73%
20,COc1ccccc1C1CCN(C(=O)c2ccccc2)CC1,7.16%
21,O=C(Nc1ccccc1)NN(C(=O)CCl)c1ccccc1,6.85%
